Experimental data reported in the supplement of paper PMC12217912.
The other results are listed elsewhere or left out. The full chains were built here from the parent and the listed change. Values near 0.05 are background.

B1: TEV protease; numbered along this chain (parent)
chain: MGESLFKGPRDYNPISSSICHLTNESDGHTTSLYGIGFGPFIITNKHLFRRNNGTLVVQSLHGVFKVKDTTTLQQHLVDGRDMIIIRMPKDFPPFPQKLKFREPQREERICLVTTNFQTKSMSSMVSDTSCTFPSGDGIFWKHWIQTKDGQCGSPLVSTRDGFIVGIHSASNFTNTNNYFTSVPKNFMELLTNQEAQQWVSGWRLNADSVLWGGHKVFMVKPEEPFQPVKEATQL

Variants of: B1
Assay: raw area under fraction-flipped curve 0-4 h after induction (AUC4h, not background-subtracted), DNA-recorder readout of cleavage of the substrate (dimensionless); higher = more cleavage of the substrate by the protease variant
Conditions: temperature: 34 °C; time window: 0-4 h after rhamnose induction
Procedure: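 In vivo DNA recorder in E. coli TOP10(DE3) ΔrhaA at 34 °C. Each TEVp single-site mutant (parent TEVp 0) is paired with a single-site variant of the 7-mer TEVs (canonical ENLYFQ|S). The substrate sits between flexible linkers in a Bxb1-sfGFP-TEVs-SsrA fusion, so cleavage stabilises Bxb1 and speeds flipping of a recombination array, read by NGS. The value is the raw area under the fraction-flipped curve over 0-4 h after rhamnose induction (AUC4h), with ≥20 reads per time point. It is not background-subtracted; inactive controls average about 0.047.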
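Further: Bxb1 expression induced with 0.2% (w/v) L-rhamnose at OD600 near 0.5, cultures sampled hourly, flipped fraction per protease–substrate barcode pair counted by paired-end Illumina sequencing.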

Row | Variant | area with substrate ANLYFQS | area with substrate CNLYFQS | area with substrate DNLYFQS | area with substrate FNLYFQS | area with substrate GNLYFQS | area with substrate HNLYFQS | area with substrate INLYFQS | area with substrate KNLYFQS | area with substrate LNLYFQS | area with substrate MNLYFQS | area with substrate NNLYFQS | area with substrate PNLYFQS | area with substrate SNLYFQS | area with substrate TNLYFQS | area with substrate WNLYFQS | area with substrate YNLYFQS | area with substrate VNLYFQS | area with substrate RNLYFQS | area with substrate QNLYFQS
1 | MGESLFKGPRDYNPISSSICHLTNESDGHTTSLYGAGFGPFIITNKHLFRRNNGTLVVQSLHGVFKVKDTTTLQQHLVDGRDMIIIRMPKDFPPFPQKLKFREPQREERICLVTTNFQTKSMSSMVSDTSCTFPSGDGIFWKHWIQTKDGQCGSPLVSTRDGFIVGIHSASNFTNTNNYFTSVPKNFMELLTNQEAQQWVSGWRLNADSVLWGGHKVFMVKPEEPFQPVKEATQL [I36A] | 0.11 | 0.0447 | 0.0726 | 0.0408 | 0.0549 | 0.0602 | 0.0334 | 0.0527 | 0.0515 | 0.0549 | 0.0533 | 0.0416 | 0.0546 | 0.0588 | 0.051 | 0.0364 | – | – | –
2 | MGESLFKGPRSYNPISSSICHLTNESDGHTTSLYGIGFGPFIITNKHLFRRNNGTLVVQSLHGVFKVKDTTTLQQHLVDGRDMIIIRMPKDFPPFPQKLKFREPQREERICLVTTNFQTKSMSSMVSDTSCTFPSGDGIFWKHWIQTKDGQCGSPLVSTRDGFIVGIHSASNFTNTNNYFTSVPKNFMELLTNQEAQQWVSGWRLNADSVLWGGHKVFMVKPEEPFQPVKEATQL [D11S] | 0.079 | 0.0642 | 0.0763 | 0.0597 | 0.0662 | 0.0589 | 0.0714 | 0.0736 | 0.0772 | 0.0471 | 0.0709 | 0.0744 | 0.0899 | 0.0707 | – | – | 0.0739 | – | –
3 | MGESLFKGPRDYNPISSSICHLTNESDGHTTSLYGIGFGPFIITNKHLGRRNNGTLVVQSLHGVFKVKDTTTLQQHLVDGRDMIIIRMPKDFPPFPQKLKFREPQREERICLVTTNFQTKSMSSMVSDTSCTFPSGDGIFWKHWIQTKDGQCGSPLVSTRDGFIVGIHSASNFTNTNNYFTSVPKNFMELLTNQEAQQWVSGWRLNADSVLWGGHKVFMVKPEEPFQPVKEATQL [F49G] | 0.0609 | 0.0503 | 0.0553 | – | 0.0555 | 0.0512 | 0.0517 | 0.058 | 0.067 | 0.0534 | 0.0554 | 0.0612 | 0.0578 | 0.0527 | 0.0594 | 0.0444 | – | – | –
4 | MGESLFKGPRDYNPISSSICHLTNESDGHTTSLYGIGFGPFIITNKHLFRRNNGTLVVQSLHGVFKVKDTTTLQQHLVDGRDMIIIRMPKDFPPFPQKLKFRQPQREERICLVTTNFQTKSMSSMVSDTSCTFPSGDGIFWKHWIQTKDGQCGSPLVSTRDGFIVGIHSASNFTNTNNYFTSVPKNFMELLTNQEAQQWVSGWRLNADSVLWGGHKVFMVKPEEPFQPVKEATQL [E103Q] | 0.0433 | 0.0675 | 0.0889 | 0.0604 | 0.0634 | 0.0645 | – | 0.0548 | 0.0708 | 0.0704 | 0.059 | 0.0719 | 0.0673 | 0.0411 | 0.0614 | 0.0514 | – | – | –
5 | MGESLFKGPRDYNPISFSICHLTNESDGHTTSLYGIGFGPFIITNKHLFRRNNGTLVVQSLHGVFKVKDTTTLQQHLVDGRDMIIIRMPKDFPPFPQKLKFREPQREERICLVTTNFQTKSMSSMVSDTSCTFPSGDGIFWKHWIQTKDGQCGSPLVSTRDGFIVGIHSASNFTNTNNYFTSVPKNFMELLTNQEAQQWVSGWRLNADSVLWGGHKVFMVKPEEPFQPVKEATQL [S17F] | 0.0683 | 0.0686 | 0.0679 | 0.0649 | – | 0.0703 | 0.0664 | – | 0.0602 | 0.0762 | 0.0394 | 0.0615 | 0.0555 | 0.0651 | 0.0604 | 0.0602 | – | – | –
6 | MGESLFKGPRDYNPISSSICHLTNESDGHTTSLYGIGFGPFIITNKHLFRRNNGTLVVQSLHGVFKVKDTTTLQQHSVDGRDMIIIRMPKDFPPFPQKLKFREPQREERICLVTTNFQTKSMSSMVSDTSCTFPSGDGIFWKHWIQTKDGQCGSPLVSTRDGFIVGIHSASNFTNTNNYFTSVPKNFMELLTNQEAQQWVSGWRLNADSVLWGGHKVFMVKPEEPFQPVKEATQL [L77S] | 0.0458 | 0.0575 | 0.0434 | 0.0624 | 0.0602 | 0.0664 | – | 0.0763 | – | 0.0564 | – | 0.0621 | 0.0624 | 0.0688 | 0.0556 | 0.0589 | – | 0.0641 | –
7 | MGESLFKGPRDYNPISSSICHLTNESDGHTTSLYGIGFGPFIITNKHLFRRNNGTLVVQSLHGVFKVKLTTTLQQHLVDGRDMIIIRMPKDFPPFPQKLKFREPQREERICLVTTNFQTKSMSSMVSDTSCTFPSGDGIFWKHWIQTKDGQCGSPLVSTRDGFIVGIHSASNFTNTNNYFTSVPKNFMELLTNQEAQQWVSGWRLNADSVLWGGHKVFMVKPEEPFQPVKEATQL [D69L] | 0.0513 | 0.0641 | 0.0976 | – | – | 0.0591 | 0.0599 | 0.0533 | – | 0.0562 | 0.0555 | 0.061 | 0.0584 | 0.0667 | 0.0634 | 0.0674 | 0.0691 | 0.0625 | 0.0703
8 | MGESLFKGPRDYNPISSSICHLTNESDGHTTSLYGIGFGPFIITNKHLFRRNNGTLVVQSLHGVFKVKDTTTLQQHLVDGRDMIIIRMPKDFPPFPQKLKFREPQREERICLVTTNFQTKSMSSMVSDTSCTFPSGDGIFWKHWIQNKDGQCGSPLVSTRDGFIVGIHSASNFTNTNNYFTSVPKNFMELLTNQEAQQWVSGWRLNADSVLWGGHKVFMVKPEEPFQPVKEATQL [T147N] | 0.0596 | 0.0578 | 0.0571 | 0.051 | 0.0606 | 0.0589 | 0.0556 | – | 0.0696 | 0.0527 | 0.068 | – | – | 0.061 | 0.0663 | 0.0545 | 0.0603 | 0.0481 | –
9 | MGESLFKGPRDYNPISSSICHLTNESDGHTTSLYGIGFGPFIITNKHLFRRNNGTLVVQSLHGVFKVKDTTTLQQHLVDGRDMIIIRMPKDFPPFPQKLKFREPQREERICLVTTNFQTKSMSSMVSDTSCTFPSGDGIFWKHWIQTKDGQCGSPLVSTRDGFIVGIHSASNFTNTNNYFTSVPKMFMELLTNQEAQQWVSGWRLNADSVLWGGHKVFMVKPEEPFQPVKEATQL [N186M] | 0.0597 | 0.0656 | 0.0762 | – | 0.0662 | 0.0612 | – | – | – | – | – | 0.0786 | – | 0.0656 | 0.0599 | 0.0707 | 0.058 | – | –
